# According to ChEMBL document CHEMBL4888484, “Replenishing the malaria drug discovery pipeline: Screening and hit evaluation of the MMV Hit Generation Library 1 (HGL1) against asexual blood stage Plasmodium falciparum ,using a nano luciferase reporter read-out” (2022):
# Hit rate of the full screen: of about 150,000 compounds, about 540 (0.36%) showed an effect of 50% or more. The list shows a part of the results.
# Test system: Plasmodium falciparum
# Assay: Primary screen in NF54 nanoGlo assay, in single point, at 2uM, 72h; a lower Z score goes with more inhibition
# Assay type: functional, Erythrocyte
# Details: timepoint 72 hour
Compound,% Inhibition,Z score
COCCN1C(=O)c2ccc(C(=O)NCc3ccncc3)cc2C1=O,-3%,0.39
CN1CC(=O)Nc2cc(C(=O)N3CCOC[C@@]3(C)C3CC3)cnc21,-8%,1.72
CCCC1CCN(C2CCN(C)C2=O)C1 (stereo not drawn),-4%,0.41
CC[C@H](NC(=O)[C@H]1CC[C@@H](O)CC1)c1ncccc1C,-24%,2.75
Cc1cc(=O)n2c(=O)c(/C=C/c3ccc(Cl)cc3)n[nH]c2n1,-19%,2.18
CC(C)[C@@]1(CO)CCCN(C(=O)c2csc3ccccc23)C1,-8%,1.36
CCN1CCCC[C@@H]1CNCc1cc(C#CCO)cs1,7%,-1.39
O=C(COCC(=O)Nc1ccccc1)NC[C@H]1CCCO1,-4%,0.47
Cc1cc(C)cc(N(CCC#N)C(=O)COC(=O)CCc2c(C)[nH]c(=O)[nH]c2=O)c1,-3%,0.38
COc1ccc(Cn2ccc(C3CC3)n2)cc1F,-7%,0.63
COc1ccc(Br)c(CN(CC#N)S(=O)(=O)N(C)C)c1,-8%,1.27
Cc1[nH]ncc1C(=O)N1CCC=C(F)C1,-8%,0.99
Cc1nc([C@H](C)NS(=O)(=O)c2ccc(C)c(N(C)C)c2)cs1,-2%,0.3
COc1cc(NC(=O)N[C@@H]2CCC[C@@H]2Oc2cnn(C)c2)n(C)n1,-7%,0.69
Cc1cc(NC(=O)CN(C(C)C)C2CC2)no1,-5%,0.54
COc1ccc(CNC(=O)CC2CCN(C(=O)c3ccc(C)cc3)CC2)cc1,-7%,1.27
CC(C)c1cccc(-n2cc(O)c(C(=O)N3CC[C@@](O)(C(N)=O)C3)n2)c1,-5%,0.54
Cn1cc(-c2ccc3c(c2)OCC[C@@H]2CC[C@H](O)[C@@H](CNC(=O)[C@@H]4CN(C5CCC5)CCN4C3=O)O2)cn1,3%,-0.38
CCc1nn(C)c(OC)c1CNC(=O)CCN1c2ccccc2CC[C@@H]1C,4%,-0.59
COc1ccc(CC[C@H](C)NC(=O)Cc2csc(C)n2)cc1,1%,-0.15
CO[C@H]1CCCN(C(=O)c2cn(CCCc3ccccc3)nn2)C1,-19%,1.67
COc1ccc(NC(=O)CCC2CCN(C/C=C/c3ccccc3OC)CC2)c(OC)c1,-25%,2.26
CC(C)Oc1cccc(C=C(Cc2ccccc2)c2nccc(=O)[nH]2)c1,-4%,0.72
CC(C)Cn1nc(C(=O)NC2CCCC2)c2c1CCNC2,-5%,0.66
CCCC[C@H](CC)C(=O)Nc1cc(S(C)(=O)=O)ccc1Cl,-3%,0.59
CCCN1CC2(CCN(c3cc(CC)nc(C)n3)CC2)C[C@H]1C(=O)O,2%,-0.3
COc1ccc(Cc2nc([C@H]3CCOC3)n(CCO)n2)cc1OC,-1%,0.17

Compound,% Inhibition,Z score
O=C(c1ccno1)N1CC[C@H]2[C@H](CCC(=O)N2CCc2cccs2)C1,0%,0.03
Cc1n[nH]c(C)c1-c1ncccc1C(=O)N1CCCC1,-6%,0.58
COc1nc(OC)nc(-c2c(Cl)cccc2OC)n1,9%,-1.18
Cn1ncnc1NC(=O)c1cccc(-n2cccn2)n1,-8%,0.9
Cc1cc(C)n(C)c(=O)c1C(=O)N(CCc1ccccc1)C[C@H]1CCCN(C)C1,-22%,2.41
CCN(C1CCN(Cc2c(C)nc3ccccn23)CC1)S(C)(=O)=O,-8%,1.13
Nc1c2c(-c3ccc(F)cc3)nc(N3CCN(CCc4ccccc4)CC3)nc2nn1-c1ccc(Cl)cc1,-10%,1.17
CN(C)c1cccc(-c2nnc(NS(=O)(=O)c3ccoc3)o2)c1,-4%,0.37
CC(C)OCCNc1nc(C2CC2)nc2[nH]ccc12,3%,-0.42
N[C@H]1CC[C@@H](C(=O)N(CCc2ccc(Cl)cc2)Cc2cccnc2)C1,6%,-0.59
COC(=O)c1cc2n(n1)C[C@@](C)(C(=O)NC1CCC(C)CC1)N(Cc1ccccc1)C2=O (stereo partly drawn),15%,-1.74
O=C([C@H]1CCOC1)N1CCC(c2nccn2CC2CC2)CC1,-6%,0.92
C[C@H]1CN(S(=O)(=O)c2ccc3c(c2)OCCCO3)C[C@]1(O)C1CC1,-7%,1.03
C=C(C)CS(=O)(=O)N1CCC(c2ccnn2C)CC1,5%,-0.63
O=C1C[C@@H](c2ccc(Cl)cc2)n2nc(NC(=O)c3cccnc3)nc2N1,35%,-3.94
CC(C)c1cc(N(C)CCC2(O)CCCC2)nc(N)n1,-16%,1.7
O=C(N[C@H]1CCOc2ccccc21)c1ccc(S(=O)(=O)N2CCCC2)cc1,-17%,2.17
COc1cc(CN2C(=O)C(C)C(C)C2=O)ccn1 (stereo not drawn),-12%,1.96
Cc1ccc(Cc2nsc(NCc3ccc(F)cc3)n2)cc1,-16%,1.53
Cn1ccc(NC(=O)C(c2ccccc2)c2ccccc2)n1,-5%,0.68
[O-][n+]1c(-c2ccc(Br)cc2)nc2ccc(Cl)cn21,-12%,2.37
O=C(Nc1ccn(C2CCCCC2)n1)N1CCOCC1,-9%,1.42
O=C(CC[C@@H]1CNC(=O)[C@@H]2C[C@H](NCc3ccccn3)CN12)NCc1ccc(F)cc1,26%,-2.91
O=C(NCCN1CCCCC1)c1csc(NC(=O)c2ccccc2F)n1,6%,-1
CC(C)c1nnc(-c2coc(S(=O)(=O)N3CCCC[C@@H]3C)c2)o1,4%,-0.5
Cc1noc(CNC(=O)N2Cc3cc(Br)ccc3C[C@@H]2C)n1,-2%,0.39
O=c1[nH]cccc1-c1cc(F)cc2cccnc12,13%,-1.78
